# Laboratory results taken from the supplement of paper PMC3334620.
# In all, about 33,000 sequences were measured (“E-score (-0.5 to 0.5)”: median about -0.053, highest 2% from about 0.37 on). The list shows a part of the results.
# Target: Hap1 (UniProt P0CE41)
# Test: PBM E-score (8-mer binding enrichment) (E-score (-0.5 to 0.5)); higher = stronger / more preferred TF binding; most listed sequences are background and not binding sites
# Conditions: protein concentration: 200 nM; construct: GST-DNA-binding domain
# In short: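 Masliner-normalised scans of fluorescent anti-GST signal were the basis for scoring. That signal came from GST-tagged yeast transcription factors applied at about 100-200 nM to double-stranded universal all-10-mer Agilent arrays on fresh or once-stripped slides. Each ungapped eight-base word, pooled with its reverse complement, received an E-score from the Universal PBM Analysis Suite.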
# UniProt P0CE41, sequence (P0CE41 whole entry): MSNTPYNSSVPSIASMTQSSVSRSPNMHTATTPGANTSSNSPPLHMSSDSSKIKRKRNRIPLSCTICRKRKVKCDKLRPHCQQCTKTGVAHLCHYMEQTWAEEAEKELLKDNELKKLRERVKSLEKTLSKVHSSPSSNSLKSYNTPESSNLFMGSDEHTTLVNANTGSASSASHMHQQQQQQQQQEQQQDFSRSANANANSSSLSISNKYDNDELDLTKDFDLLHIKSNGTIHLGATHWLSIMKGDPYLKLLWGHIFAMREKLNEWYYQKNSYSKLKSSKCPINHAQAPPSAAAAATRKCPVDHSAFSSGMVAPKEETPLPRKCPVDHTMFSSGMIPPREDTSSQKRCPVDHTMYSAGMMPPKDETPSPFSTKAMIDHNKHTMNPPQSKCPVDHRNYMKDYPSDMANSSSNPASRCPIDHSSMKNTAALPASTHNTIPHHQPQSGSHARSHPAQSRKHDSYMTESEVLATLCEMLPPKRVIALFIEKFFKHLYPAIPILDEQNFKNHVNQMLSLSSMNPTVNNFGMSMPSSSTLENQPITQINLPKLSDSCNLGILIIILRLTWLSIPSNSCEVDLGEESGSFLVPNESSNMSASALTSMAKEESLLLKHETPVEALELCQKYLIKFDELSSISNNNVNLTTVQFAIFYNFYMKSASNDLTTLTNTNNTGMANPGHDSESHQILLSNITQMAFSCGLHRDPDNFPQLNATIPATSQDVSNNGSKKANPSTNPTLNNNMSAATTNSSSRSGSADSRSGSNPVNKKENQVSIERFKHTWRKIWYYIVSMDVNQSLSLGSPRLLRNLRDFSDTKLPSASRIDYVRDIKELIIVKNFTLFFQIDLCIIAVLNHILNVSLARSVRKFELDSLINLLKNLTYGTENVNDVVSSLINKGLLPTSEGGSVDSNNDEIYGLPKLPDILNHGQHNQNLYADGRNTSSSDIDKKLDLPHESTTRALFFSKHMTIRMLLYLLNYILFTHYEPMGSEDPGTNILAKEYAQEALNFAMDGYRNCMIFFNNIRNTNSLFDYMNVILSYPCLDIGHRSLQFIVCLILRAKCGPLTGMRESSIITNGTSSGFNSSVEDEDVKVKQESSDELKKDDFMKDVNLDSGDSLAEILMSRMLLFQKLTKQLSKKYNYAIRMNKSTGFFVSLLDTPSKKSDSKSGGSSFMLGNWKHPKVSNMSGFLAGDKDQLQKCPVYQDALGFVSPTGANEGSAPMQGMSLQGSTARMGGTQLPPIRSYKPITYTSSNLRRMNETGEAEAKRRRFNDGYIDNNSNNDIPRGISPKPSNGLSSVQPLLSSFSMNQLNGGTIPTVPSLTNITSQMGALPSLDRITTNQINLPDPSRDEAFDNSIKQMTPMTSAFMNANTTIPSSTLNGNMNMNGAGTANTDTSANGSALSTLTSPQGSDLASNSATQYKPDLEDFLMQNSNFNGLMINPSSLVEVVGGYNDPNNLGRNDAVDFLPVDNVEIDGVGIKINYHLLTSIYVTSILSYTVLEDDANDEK
row,Sequence,PBM E-score
1,TCGTGGCA,-0.16
2,GCGCTTAA,0.0461
3,CGACTTCC,0.038
4,ACCTGCTA,-0.123
5,ACTTATCC,0.235
6,AGTTGAGG,-0.0744
7,GCCTGGAC,-0.0392
8,AAGGTTTC,0.0735
9,ATTGAATC,-0.0857
10,AGAGAAGG,-0.0455
11,ATTTCACG,0.1
12,AGACTAAG,-0.103
13,GAGCTTGA,-0.124
14,CGGAACCC,0.27
15,GAAGGTTA,-0.0336
16,GCCACTGA,-0.162
17,CCCTTGAG,-0.0274
18,ATAACTTC,0.16
19,AAGGAGGA,-0.208
20,GGAAAATA,0.123
21,GAGCCTGA,-0.127
22,CCATAACG,0.0784
23,AACGTCTA,-0.0706
24,GACATACA,0.112
25,ACTAACTG,0.00942

row,Sequence,PBM E-score
1,CATTTGTC,-0.0813
2,GTAGAGGA,-0.272
3,CATGAGGG,-0.145
4,GCCAGAGA,-0.227
5,ACCCTCGG,0.299
6,CATACTGA,-0.207
7,ACACTGGA,-0.0745
8,GCTGTATA,-0.365
9,AACGCCGT,0.273
10,AATCAGCG,0.103
11,CCTATTGC,-0.0356
12,AAATACCT,-0.0139
13,AAATTCTC,0.00787
14,GCATGGGA,-0.0766
15,CGACCTGA,-0.223
16,GATCCCAA,-0.0661
17,GAAATACC,0.239
18,GAAGCCCC,0.15
19,AGGCAGGG,-0.242
20,AGGAGAGG,-0.388
21,CAGCGAGC,0.0705
22,ATAGGAAT,-0.193
23,CAGCATGG,-0.158
24,ATATGACC,0.153
25,CTTCATGA,0.0075

row,Sequence,PBM E-score
1,ACGCACCC,-0.129
2,CTCTGTAC,-0.252
3,ATCAGAAT,-0.166
4,CTACGTTC,-0.194
5,GAACGCTC,-0.103
6,AGCCCGCC,0.184
7,AGCAATCA,-0.212
8,ATTTTTGG,-0.155
9,ACTAGTGC,-0.0626
10,CACACCCA,-0.0406
11,ACACTAAC,-0.0076
12,CGATAGAC,0.226
13,GTCTCCAA,-0.102
14,CCGACGTA,0.269
15,GTACTAAA,-0.00722
16,CCTCCTAC,-0.263
17,CCCCGGAC,0.397
18,CACCCGGA,0.364
19,CTTACAGC,-0.112
20,CCACTCAG,-0.21
21,CAACGGAG,0.256
22,CTTACTAC,-0.111
23,ATCGCCCC,-0.0327
24,GGAGGGAC,-0.0986
25,CAGGACTG,-0.342

row,Sequence,PBM E-score
1,TCCCTCGA,-0.178
2,CGAACGCG,0.198
3,GCAACTAA,0.127
4,CGTTTCGC,0.219
5,CAAGAAGC,0.0198
6,AGGCCTCA,-0.261
7,AGTAAACA,0.0169
8,GTCGTCTA,-0.209
9,CCTTCATA,-0.0295
10,GCCCCGCC,0.215
11,CGTCGTGA,0.0299
12,ACTAACGA,-0.132
13,AGGGGACT,-0.0934
14,GTGCGCAA,-0.0628
15,ACCTTTGG,-0.229
16,GAGTTAGC,0.194
17,AAGGTAGC,-0.239
18,CCTGCACG,-0.173
19,ATGCTACA,-0.147
20,CTATTGAC,-0.0417
21,CGTAAGAA,0.113
22,AGAGCTGC,-0.128
23,AGTATAGC,-0.167
24,GATAATCC,0.334
25,AGCGTTCG,-0.147

row,Sequence,PBM E-score
1,ATAGGGCG,0.0891
2,ATAAGCCA,-0.0858
3,ACAGGTGG,0.107
4,CGCCCACA,-0.134
5,CGCGTACA,-0.0167
6,AGTGCGTC,-0.0787
7,GACCATAA,-0.0392
8,TAAAGGAA,-0.0525
9,CGTAGACC,0.0187
10,GCTCACGA,-0.317
11,GATTGTCC,0.205
12,CCGCCGGA,0.402
13,AACCAAGC,-0.0625
14,ATGCTGTC,-0.243
15,ATGCGTGA,0.00074
16,ACAGTTAC,-0.0301
17,AACCACGC,-0.205
18,CTATGGTA,-0.098
19,ACAATATC,0.0476
20,CGGTCGGA,0.367
21,CTCGCCAA,-0.0917
22,CCGCATAG,0.117
23,GCTTAAAC,-0.103
24,ACCATGTA,-0.177
25,ATTTGGTG,-0.267

row,Sequence,PBM E-score
1,ATCACCGG,0.382
2,ATTCCGTA,0.259
3,AGGAGCAG,-0.162
4,CATTACTC,0.0705
5,GTAATGAA,-0.197
6,AAACCATT,-0.214
7,ATGTGCCC,-0.0642
8,CCTGAGTC,-0.0525
9,GAGAACGC,0.0263
10,AAACTCGA,-0.0961
11,CTGCTCGA,-0.125
12,TAGCCCCA,-0.117
13,ACCATATG,-0.335
14,CGCGTGCC,0.0532
15,CAGAAGAC,-0.145
16,AGGTCCAG,-0.0779
17,CCCCCTCC,-0.0459
18,GTGAGGCA,-0.0762
19,CTAAGGAA,-0.0347
20,ACACATGG,-0.253
21,AAGTCCCT,-0.278
22,TCCCCTCA,-0.154
23,GGAGAAGA,0.121
24,CTTTGCTA,-0.314
25,GCGTTTAC,-0.00734

row,Sequence,PBM E-score
1,CGCCGTAA,0.283
2,ATATTGGG,0.0378
3,CCAAAGCG,0.0924
4,CATGTCAA,-0.227
5,AGTTAACT,0.197
6,GAATCAGC,-0.175
7,AATGACCC,-0.0706
8,AGAGCGCG,0.012
9,ATCTCAAC,-0.0257
10,ACAGGGTG,-0.215
11,CCCTATTA,-0.216
12,CAGGCCAA,-0.128
13,ACTCGATA,-0.00194
14,CATCGAAA,-0.158
15,AATGTCGG,0.254
16,AATACGCG,0.0739
17,CCCCTATA,-0.155
18,TATCATCA,-0.0968
19,GTCAACTA,-0.144
20,ACAGCGGT,0.0813
21,GGCGTTAA,0.31
22,ATCACGGA,0.352
23,CCGTGTCG,0.252
24,ACAGAGCC,-0.156
25,CACCAATC,-0.0582

row,Sequence,PBM E-score
1,ACGAGTCT,-0.144
2,CTGGCAGA,-0.107
3,CTACGTCA,-0.169
4,CACGTTAG,-0.273
5,AGCTGGAG,-0.157
6,ATGCGCCC,0.104
7,ATCGTTTA,-0.228
8,CGTTGGGA,-0.141
9,TGAATAAA,-0.178
10,GACAGTAA,0.0206
11,ATGAAGGG,-0.25
12,CTACGGAG,0.32
13,GCCAGACC,0.0912
14,CAAGCTAC,-0.183
15,AGGGCTTG,-0.241
16,CGGGATAG,0.195
17,ACCACTGG,-0.0951
18,CGCCGAAG,0.359
19,GCCCAGGC,-0.268
20,ACTGCAAT,-0.0894
21,GACGCGCC,-0.00929
22,ACTCGCGA,0.0632
23,AGCAGCAG,-0.132
24,CGACCACA,-0.186
25,ACAATTCC,-0.0172

row,Sequence,PBM E-score
1,ACAACGAA,-0.0105
2,AGGGGGCA,-0.143
3,CGATCCCA,-0.0718
4,AAGAAACT,-0.0888
5,ATCTGTTA,-0.0286
6,ATTATGGC,-0.0166
7,CAAAATGA,-0.177
8,GTGGTATA,-0.167
9,AACATAAT,0.0438
10,CCTTATCC,0.14
11,CCCCCTGA,-0.257
12,ACGAGCAA,-0.188
13,CAATGAAC,-0.0456
14,ACACCACG,-0.19
15,CTATCGTA,-0.17
16,CAATTTTC,0.0727
17,AGATCCTC,-0.0657
18,ACCATGAG,-0.129
19,ATGTTTTA,-0.302
